Data taken from the supplement of paper PMC12632987.
In all, about 4,500 sequences were measured (“median log2 fold change of GCK-ALFA target abundance (FLAG IP / Myc IP barcode read proportion)”: median about 0.078, lowest 2% from about -0.6 on). The list shows a part of the results.

B1: GBRAP_52_6153 (protein)
chain: ARERAREYAEAFVAAVKAGDEERARAIMEEIAATLNDEEIELFLEEVARLVEGLTPEERERVVEAVLEFEDIAVAAGHDEELLSYHTARVAGAAYDALQK
B2: GBRAP_160_4816 (protein)
chain: MEKVEELLKEAEEDLLDTAEASKDLPIEDRAALLRAEGYTSILELKEELNLSDETEDKLVAIVDELVARLLANPDLTPEEVLALVKEAYEKMKKIVLEEA
B3: GBRAP_80_6757 (protein)
chain: MEEELEKALEELKELDPELGERLREVLERARAAGVPVETILRYVEALVELAKLDLELAKKIANEAIEELEEALAAGDLEAAIGTLVDYTSEALLKVEELE
B4: GBRAP_160_4444 (protein)
chain: SEEAEKLKKEIKEELEEALEMMKGQDLEERLAILRVTRGNIILIAEESEIMTDEDIEKIDEIMEELIEWVEENPDLTEEELKAALEEALKKIFEIIDEAE
B5: GBRAP_177_5015 (protein)
chain: LTLEELRAMIADPNTTAKEAFEALTEAAPAISAEEAAELLAEVVRTKELDEEAYEAAAKAILTLSKVQGLSLAEVIGYLIEHVEAEKVEKILEAIAKVED
B6: GBRAP_160_4428 (protein)
chain: SEKLKKAKEKIEEIIEETVEMMKGQSAEERQVLVRVARGEIILELEELGLLTDEVDEVIDEEFDEIVEYIAENPDISDEELRELLEEAREKILKELEKVS
B7: GBRAP_52_5995 (protein)
chain: SAARIEAVAREIVALVLAGDREGARALIRKAFRELSDEEIVEMVRLATRLLMEDPRATDEDIRTFIDLVLDTAEEEGLDEETIADIIGAIATAIKEAELK
B8: GBRAP_160_4729 (protein)
chain: SMELEALAKEFKKLFLEAVELSENESKENKNAIWEGAAGEAIMMAFENPSLTDEQEDAVAKIMDELVKKLKENFDASLEEKKKIVEEMIEKLLKELKEIA
B9: GBRAP_128_3455 (protein)
chain: SVEEVRAWTRAVMEEVKKADDEEARRLFEELAARLTGLSLEEVEAAVEVIKEMLPELTPEKLELLAEVFREARPRFTPEKAALVADVASDALLLAEEKEE
B10: GBRAP_83_6922 (protein)
chain: KEEITVAANSDNIEEAFDAAIDLHKNEGYEVSIDVIVKKEDIEKLLKAFKKLAEEGVETKLEILLLGVTEEEAEELEKKLKEIAKEYGVNIEVEVTAVKL
B11: GBRAP_160_3997 (protein)
chain: EEEIEKLKEEIEEILEETLELAKGEDAANRLAIVRTMGGEILLELEESGIVSDEAEEEIDKILDELAATVEANPDMTDEELKELLEETLEKIKKVLEKHS
B12: GBRAP_128_3362 (protein)
chain: VDEAFLAEVRALAEAIIASSVEEARELARRIVELMLTASDEEREAAVEIVLELLPKLSAEKLDVLADVIREQLPRADAYKRELLADVQVEALNEAEELEE
B13: GBRAP_184_5080 (protein)
chain: KTLERLVEAETREELLAKVEEVLKEAAKEKANLVVHVKMKGLTVETALEIIDLLGKAKKEGKVPEVTVGFDEEFSEEEIDIILERADEQGIRVVLPIKDE
B14: GBRAP_128_3445 (protein)
chain: MEEEIEAYAKEVLEEFKKKLEKGPEEAAEFFIEKLKEVDLETAEAITKAVVEYLKTQPIELAEKVLDEIMRLSKELSPEKRAIVLDYVSPLLYELEEKEE
B15: GBRAP_57_6466 (protein)
chain: MTPLEKALEYFKKAIELVKAGASLEEILEEVKKGLDELDRETLLDILLLLDPSTRSDLSKEELKERLLELIRRLLEEEGREAALKALELMAGQVEMDLVE
B16: GBRAP_14_3846 (protein)
chain: VEALIKAVEETAKDTIALAAEIAPEHAEEIGKKIEELAKKLIEEIKKKNLNEEEVAERLDEMAEELAAYIREKGYMSDEEIAAFRAHIIGTAALLLSEIE
B17: GBRAP_14_3863 (protein)
chain: MEELIKAVKETAEATKKFAAELAPEHAEEINKKIDELAEKIIKKIKEENLNKEEVAKLAEEAAEELAKFMLEKGYMSEEEAAAFRAHYLSEFLLNLEEVE
B18: GBRAP_128_3461 (protein)
chain: SIEEVKKWTRETMEKAEKASLEEARKLFEELAERLLTLSLEEVEAAVEVIEENLPKLSAEKLEILAEVFEEKLPLFSPEKRALVADVISDALLLAEEQEE
B19: GBRAP_125_3040 (protein)
chain: SLEEQLEALARLARLLGLSDDDIEELVRLAREHGIKGALIALLMAEGLEDLADLVEQLTEEQVAEVLKRLLAWLDAHPDATAEEAVAKLKELAKEALAAA

What follows are binders tested against GABARAP, O95166 (assay: median log2 fold change of GCK-ALFA target abundance (FLAG IP / Myc IP barcode read proportion) (log2 ratio); each designed protein is fused to an ALFA-tag nanobody in HEK293 cells to bring the named protein to FLAG-tagged glucokinase (GCK); Myc marks an untargeted standard; higher = target protein stabilised (more abundant)). Conditions: target protein: 3xFLAG-MCP-GCK-ALFA reporter; HEK293 landing pad (RPLP).
Chain of GABARAP, O95166 (O95166 whole entry, the tested form may be a part): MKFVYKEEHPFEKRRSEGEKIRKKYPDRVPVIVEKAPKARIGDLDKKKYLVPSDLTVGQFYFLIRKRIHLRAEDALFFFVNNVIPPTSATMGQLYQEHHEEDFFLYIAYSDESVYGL
Summary of the method: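 An ALFA-nanobody-fused binder library was recombined into HEK293 landing-pad cells and induced with 2 μg mL^−1 doxycycline. Cells were transfected with a plasmid expressing a FLAG-tagged target and a Myc-tagged standard. After 48 h, lysates underwent anti-FLAG and anti-Myc immunoprecipitation, and circular RNA barcodes were reverse transcribed, amplified and sequenced. Target abundance is the per-binder median log2 ratio of FLAG to Myc barcode read proportions. Barcodes needed ≥10^−7 proportion in both replicates, binders ≥3 barcodes per replicate, and a 10^−6 pseudocount was added; the two replicates were pooled.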
With B1 the “median log2 fold change” value was -0.742. In the case of B2, the “median log2 fold change” value is reported as 0.0572. B3 was tested, and the “median log2 fold change” value was 0.105. For B4, the “median log2 fold change” value was -0.094. For B5, the “median log2 fold change” value was 0.149. With B6 the “median log2 fold change” value was 0.0554. In the case of B7, the “median log2 fold change” value is reported as -0.964. B8 was tested, and the “median log2 fold change” value was -0.015. With B9 the “median log2 fold change” value was 0.248. In the case of B10, the “median log2 fold change” value is reported as 0.108. For B11, the “median log2 fold change” value was -0.418. B12 was tested, and the “median log2 fold change” value was -0.496. B13 was tested, and the “median log2 fold change” value was 0.258. For B14, the “median log2 fold change” value was 0.149. In the case of B15, the “median log2 fold change” value is reported as 0.253. For B16, the “median log2 fold change” value was 0.12. With B17 the “median log2 fold change” value was 0.321. With B18 the “median log2 fold change” value was 0.178. In the case of B19, the “median log2 fold change” value is reported as -0.512.
